The values below come from PMC12136788.

The chains are these.
T1: UNK ZnF1-3 (human, UniProt Q9C0B0 31-174)
T1 sequence: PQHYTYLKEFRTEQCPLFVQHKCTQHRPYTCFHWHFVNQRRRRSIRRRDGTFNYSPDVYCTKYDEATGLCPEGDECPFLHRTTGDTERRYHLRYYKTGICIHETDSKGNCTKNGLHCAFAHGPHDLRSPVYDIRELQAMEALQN

B1: chr6:74354288:74354289:-_ENSG00000119899_ENST00000355773|hu_mus|FALSE|FALSE (ssRNA)
RNA: GGGAGUUCUACAGUCCGACGAUCACUCAGGUUCACCCGUAAGGCAUAGAGAACGAAGAAACCACAGAACGCCAAAAUCGCUAAGUUGUACCGAGCAGAGCAGCACACUGGAGCCGCUUCGGUCUGCCGGGCGCCCGGCAGGAGCAACAGAGGAUUGAGCAUCA
B2: chr5:54662584:54662585:+_ENSG00000039123_ENST00000230640|hu_hu|motif|central (ssRNA)
RNA: GGGAGUUCUACAGUCCGACGAUCAAUUUCUUCUACACGUAGUAAGUUCAAAACCAUGUUGUAGGUCAAAUGGAAAGCACGGUUUAGAGGAUCAGCGGAGCCCUUAAGUAAUUGUUUUCCAAUUGUUGGGCUCAUCUUUUCAUCCAACAGAGGAUUGAGCAUCA
B3: 45545573_45577520_468_3pUTR_ENSMUSG00000025217_ENSMUST00000065601|mouse|control|control (ssRNA)
RNA: GGGAGUUCUACAGUCCGACGAUCAAAAUACUUGACACACAGCUCCUUUUCCUUCUCAUAGCUUGCUGAGAGUUUCCGCUGCUUGGGCACAAUCAUGCUGGAAGUGCCAUUGGCAAGUUUGGCUUUGGCCACACAAUUUUCAGUCAACAGAGGAUUGAGCAUCA
B4: chr4:25749455:25749456:-_ENSG00000091490_ENST00000264868|hu_hu|hu_hu_hu_mus_False|28_28 (ssRNA)
RNA: GGGAGUUCUACAGUCCGACGAUCGCACUAUGACCUCUAGAAAAAUCCACAGGGGGAAAAAAUGUAAACCAAUGUACAAUGUUAUCGCCUUCCCUGUGUGUGGAGUGACAAACAAUUGGCUCCUUCUAGCUGCUGGAUUUGGGACAACAGAGGAUUGAGCAUCA
B5: chr7:149068622:149068623:-_ENSMUSG00000025139_ENSMUST00000001950|mus_hu|mus_mus_mus_hu_False|58_68 (ssRNA)
RNA: GGGAGUUCUACAGUCCGACGAUCGUGAGGCCUCUGAGUGUGGCUUGUGGUCUGUCCUGGGUUAGAGCUGCUGGUAACACUAAGUGGACCAUCUAGAACGUUCCAGUCCCGCCUGACACCUUCAUUCCCAAUGGAGAAGAAAUCCAACAGAGGAUUGAGCAUCA
B6: chr7:65705844:65705845:+_ENSG00000169902_ENST00000304842|hu_mus|hu_hu_hu_mus_False|18_28 (ssRNA)
RNA: GGGAGUUCUACAGUCCGACGAUCAAACGGAUCUUUGUUACAUAAAUAAGGUGCCGGCUCCCCAUGUUUAACAAUGACCUCCAGAAGGAAGGCUUGCAUGGCAGAAUCCAGCACUUCAUCAGUAACACCCGCCUCAUCCAAGCGCAACAGAGGAUUGAGCAUCA
B7: chr11:110355629:110355630:+_ENSMUSG00000020623_ENSMUST00000020949|mus_hu|motif|central (ssRNA)
RNA: GGGAGUUCUACAGUCCGACGAUCGUGAAUGACAGACAGCUUACUAUGUAAAUGUUCUAAUGCUUUUACAAUAGAAACUGCGGUUUUCCCUAAGAUGUCCUCUGGAAUUGUCUGGCCUUUAUCAAUAACUUGUUUGUAGAAUUUCAACAGAGGAUUGAGCAUCA
B8: chr2:61711136:61711137:-_ENSG00000082898_ENST00000401558|hu_mus|FALSE|FALSE (ssRNA)
RNA: GGGAGUUCUACAGUCCGACGAUCAACAUUCCUCAUAGUAUGUUUAAAAGCCCAAAUAAUAGAAUCCAAAACCAGCUUGAACUGUGCAGGUGGAAUAGCUAGGAAUGCUGGGAAACAGUGAGAAUUGACAGCUUGAAGUAAUAACAACAGAGGAUUGAGCAUCA
B9: chr11:46405157:46405158:+_ENSG00000110492_ENST00000395566|hu_hu|hu_hu_hu_mus_False|48_58 (ssRNA)
RNA: GGGAGUUCUACAGUCCGACGAUCCCCUCCCCACUUUGGGCACUUGGUGUGGGCGUGAGAGGACAGGCGUGAUUGACAAAGCUAACGAGCAGACAGAAGGCACUGGUGGGUUAUAUCUUGGGCCUGUGGGAGAGGAGGGCUCCGCAACAGAGGAUUGAGCAUCA
B10: chrX:71549400:71549401:+_ENSMUSG00000019087_ENSMUST00000019231|mus_hu|mus_mus_mus_hu_False|1_58 (ssRNA)
RNA: GGGAGUUCUACAGUCCGACGAUCGCAGUAGGAAGAGGGAAGCUCUUCAGUCCAGUGCGCUGCAGGGUGGGAAAGCACAACCUAGACCACCGUCCCACCCUCAACCCCCCCACUGGCACAGGGUCACACAAUCUGGGAAGUGAUCAACAGAGGAUUGAGCAUCA
B11: chr5:37680062:37680063:+_ENSMUSG00000029121_ENSMUST00000031004|mus_hu|mus_mus_mus_hu_False|88_98 (ssRNA)
RNA: GGGAGUUCUACAGUCCGACGAUCUUUGGGUGUAGCUGGCACCUCGUACACAGGCCCGUCAUACAUGCCCCUGGAAACCCCUUGCAAUCCAAAAACCUUAUUCCUGAUUUUGACGCGCUGGUACAGGUGCUCCGGGAACGCCUUCAACAGAGGAUUGAGCAUCA
B12: 100766234_100766354_1031_CDS_ENSMUSG00000004040_ENSMUST00000127638|mouse|control|control (ssRNA)
RNA: GGGAGUUCUACAGUCCGACGAUCGUCCAGGCAGAUGUUGGGAGGGCCUCCGAUGCACGCGAUCUGCUGCCGCCUCUUCCAGUCAGCCAGCUCUUCAUCAGUCAGUGUCUUCUGCACGUACUCCAUUGCUGACAAGAGCCCCGCCAACAGAGGAUUGAGCAUCA
B13: chr4:134901438:134901439:-_ENSMUSG00000028809_ENSMUST00000134854|mus_mus|motif|central (ssRNA)
RNA: GGGAGUUCUACAGUCCGACGAUCCUUCCGACUCCCUACUGCAACUCAACCACCUUGAGUUUAAUGUUAUAUCAUUUAUCGGAAUUGCAAAAGACGAACAAGCAAUAAUGAGUACACAACCACAAAAAAAGAAAAGAUUGUUUACAACAGAGGAUUGAGCAUCA
B14: chr12:35831226:35831227:+_ENSMUSG00000020590_ENSMUST00000048519|mus_mus|FALSE|FALSE (ssRNA)
RNA: GGGAGUUCUACAGUCCGACGAUCUCAGCAGAAGACAUAUAGCCUCUUUGUGUCUAUGUUCAUCUGUGCAACAAGUGCACUAAAUAGAAUAAUUUUAUUAACCAGAGAAUACUGUACUCUACUCAUCGGUUAAACACUCUACACCAACAGAGGAUUGAGCAUCA

The other results are listed elsewhere or left out.

For this assay, the target named is T1, UNK ZnF1-3. The assay can be described thus: nsRBNS (natural sequence RNA bind-n-seq); RBNS binding buffer (assumed for nsRBNS): 25 mM Tris pH 7.5, 150 mM KCl, 3 mM MgCl2, 0.01% Triton X-100, 500 ug/ml BSA, 20 U/ml SUPERase-In, 4 C; UNK is unkempt and MSI1 is Musashi-1; names of the RNAs are library labels; protein concentration not given here; high values mean tight binding.
B1 had a binding signal of 1.49 enrichment R. Next, B2: 0.476 enrichment R; B3: 0.796 enrichment R; B4: 1.06 enrichment R. For B5, the binding signal worked out at 0.92 enrichment R. For B6, the binding signal stood at 0.214 enrichment R. For B7, the binding signal was 0.715 enrichment R. As for B8, the figure is 1.91 enrichment R; as for B9, 2.85 enrichment R. The molecule B10 yielded a binding signal of 1.02 enrichment R.

Take B11: the binding signal is 0.697 enrichment R.

As for B12, the binding signal was determined as 0.649 enrichment R.

For the molecule B13, the binding signal was 1.46 enrichment R.

In turn, B14 showed a binding signal of 0.529 enrichment R.
